Assay results published in the RNAGym collection of RNA variant scans (doi:10.7554/elife.90254).
The source gives no read counts; variants with many changes may rest on few reads.

B1: LINE1-mini (parent)
chain: GGCAGAGCUCAACACAGCGUGGCAAAGUGGCUGUGGCUAGACUGCC

Variants of: B1
Assay: self-cleavage, relative activity (ratio to wild type); higher = more cleavage; in vitro, sequencing; the parent is a self-cleaving ribozyme

| Variant | self-cleavage |
| --- | --- |
| GGCCGAGCUCAACUCAGCGUGGCAAAGUGGCUGAGGCUAGACUGCU [A4C A14U U34A C46U] | 0.05 |
| GGCCGAGCUGAACACAGCGUGGCAAACUGGCUGUGGCUAGCCUGCC [A4C C10G G27C A41C] | 0.02 |
| GGCCGAGCUCACCAGAGCGUGGCAAAGUGGUUGUGGGUAGACUGCC [A4C A12C C15G C31U C37G] | 0 |
| GGCCGAGCUCAACGCAGCGUGGCUAAGUGGCUGUGCUUACAAUGCC [A4C A14G A24U G36C C37U G40C C42A] | 0 |
| GGCCGAGUUCAACACAGCGUGGCAAUGUGGCUGUGGCUAAACUGCC [A4C C8U A26U G40A] | 0.14 |
| GGCCGAGCUAAACACAGCGUGGCAAAGUGUCUGUGGCUAGACUGCC [A4C C10A G30U] | 0.03 |
| GGCCGAGAUCAACACAGCGUGGCAAAGUGGUUGUGGCUAGACUGCC [A4C C8A C31U] | 0.12 |
| GGCCGAGCUAAACACUGCUUGGCAAAGUGCCAUUAGCUAGACUACC [A4C C10A A16U G19U G30C U32A G33U G35A G44A] | 0.04 |
| GGCCGAGCUCGAGACAGCGUGGCAAAGUGGCUGUGGGUAGACUGCC [A4C A11G C13G C37G] | 0.02 |
| GGCCGAGGUCAACACAGUGUGGCAAAUUGGCUGUGGCUAGACUGCC [A4C C8G C18U G27U] | 0.03 |
| GGCCGAGCUGAAGACAGCUUGGCAAAGUGGCUGUGGCAAGACUGCC [A4C C10G C13G G19U U38A] | 0 |
| GGCCGUGCUCAGCACAGCGUGGCAAAGUUGCUGUGGCUAGACUGCC [A4C A6U A12G G29U] | 0.02 |
| GGCCGAGAUCACCAUAGCGUGGCAAAGUGGCUGUGGCUCGACUGCC [A4C C8A A12C C15U A39C] | 0.06 |
| GGUAGAGCUCAACACAGCGUGGCAAAGGGGCUGUGGCUGGACGGCC [C3U U28G A39G U43G] | 0.01 |
| GGCCGAGCUCAGCACAGCGUGGCAAAGUGGCCGUUGCUAGACUCCA [A4C A12G U32C G35U G44C C46A] | 0.08 |
| GGCCGAGCUAAACACAGCGUGGCAAAGUGGCAGUGGCUACACUGCC [A4C C10A U32A G40C] | 0.01 |
| GGCCGAGCUAAACACAGCGUGGCCAAGUGGCUUUGGCUAGACUGCC [A4C C10A A24C G33U] | 0.03 |
| GGUAGAGCGCAACACAGCGUGGCAAAGGGGCUUUGGCUAGACUGCC [C3U U9G U28G G33U] | 0.07 |
| GGUAGAGCUCAACACAGCGUGGCAAAGUGGCUGCAGCUAGACUGCC [C3U U34C G35A] | 0.17 |

| Variant | self-cleavage |
| --- | --- |
| GGCCGAGCUCGACACAGCAUGGCAAAGUGGCUGAGGCUAUACUGCC [A4C A11G G19A U34A G40U] | 0.02 |
| GGUAGAGCACAACACAGCGUGGAAAAGUGGCCGUGGCUAGACUGCC [C3U U9A C23A U32C] | 0.09 |
| GGCCGAGCUCAACACAGCGUGGCAAGGUGGCUGUGGCUAAACUGCC [A4C A26G G40A] | 0.09 |
| GGCCGAGCUCCACACAGGGUGUCAAAGUGGUUGUGGCUAUACUGCC [A4C A11C C18G G22U C31U G40U] | 0 |
| GGCCGAGGUCAACAUAGCGUGGCAAAGUGGCUGUGGCUAGACUGCC [A4C C8G C15U] | 0.01 |
| GGCCGAGCUCAUCACAGCGUGGCAAAGUGGCUGUGGCUCGAGUGCC [A4C A12U A39C C42G] | 0.08 |
| GGCCGAGCUCGACACACCGUGGCAAAGUGGCUGUGGCUAGACUGCC [A4C A11G G17C] | 0.01 |
| GGCCGAGAUGAACACAGCGUGGCAAAGUGGCUGUGGCUAGACUGCC [A4C C8A C10G] | 0.03 |
| GGUAGAGCUCAACACAGCGCGGGAAAGUGGAUGUGGCUAGACUGCC [C3U U20C C23G C31A] | 0.04 |
| GGCCGAGCUCAACACAGCGUGGCCAAGUGGCUGUGGCUAAAUUGCC [A4C A24C G40A C42U] | 0.03 |
| GGUAGAGCUCAACACAGCGAGGCAAAGUGGCUGUGGCUAGACUGCG [C3U U20A C46G] | 0.17 |
| GGCCGCGCUCAACAGAGGGUGGAAUGGUGGCUGUCGCUAGACUGCC [A4C A6C C15G C18G C23A A25U A26G G35C] | 0.06 |
| GGCCGCGCUCAACACAGCGUGGCAAAGUGGCUCUGGCUAGACUGCC [A4C A6C G33C] | 0.12 |
| GGCCGAGCUCGACACAUCGUGGCAAAGUGGAUGUGGCUAGACUGCC [A4C A11G G17U C31A] | 0.01 |
| GGCCGAGCUCAACACUGCGAGGCAAAGUGGCUGUUGCUAGACUGCC [A4C A16U U20A G35U] | 0.18 |
| GGUAGAGCUCAACACAGCGUGGCAAAGUGGCUGUGGCUAUACUGGC [C3U G40U C45G] | 0.07 |
| GGUAGAGCUCAACACAGCGUGGCAAAGUGGCCGUGGCUAGACUGCA [C3U U32C C46A] | 0.09 |
| GGCCGAGCUCAACACAGCGUGGCAAUCUGGCUGUGGCUAGACUGCC [A4C A26U G27C] | 0.01 |
| GGCCGAGCUCAUCAUAGCGUGGCAAAGAGGCUGUGGCUAGACUACC [A4C A12U C15U U28A G44A] | 0.09 |

| Variant | self-cleavage |
| --- | --- |
| GGCCGAGGUCACCACAGCGUUGCAAAGUGGCUGUGGAUAGACUGCC [A4C C8G A12C G21U C37A] | 0.02 |
| GGCCGAGCUCAACCCAGCGUGGCACAGUGGCGGUGGCUAGACUGCC [A4C A14C A25C U32G] | 0.01 |
| GGCCGAGCUCGACGCAGCGUGGCAAAGUGGCUGUUUCUAGACUGCC [A4C A11G A14G G35U G36U] | 0 |
| GGUAGAGCACUACACAGCGUGGAAAAGUGGGUGUGGCUAGACUGCC [C3U U9A A11U C23A C31G] | 0.01 |
| GGCCGAGUUCAACACAGCGUGGGAAAGUGGCUGUGGCUAGACUGCC [A4C C8U C23G] | 0.02 |
| GGCCGGGCUCAACACAGCGUGGCAAUGUGGAUGUGGCUAGACGGCG [A4C A6G A26U C31A U43G C46G] | 0.01 |
| GGUAGAGCCAUACAAAGCGUGGCAAAGUGGCUGAGGCUAGAUUGCC [C3U U9C C10A A11U C15A U34A C42U] | 0.01 |
| GGCCGAGCUCAACACAGCGUGGCUAAGUGGCUGUAGCUAGACUGCU [A4C A24U G35A C46U] | 0.04 |
| GGCCGAGCUCAACGCAGGGUGGCAUAGUGGCUGUGGCUAGAAGGCC [A4C A14G C18G A25U C42A U43G] | 0 |
| GGCCGAGGUCAAUACAGCGUGGCAAAGUGGCUGUGGCUAGACUGCC [A4C C8G C13U] | 0.03 |
| GGCCGGGCUCAAUACAGCGUGGAAAAGUGGCUGUGGCGAGACUGCC [A4C A6G C13U C23A U38G] | 0.06 |
| GGCCGAGCUAAACAGAGCGUGGCAAAGUGGCUGUGGCUAGACUGCC [A4C C10A C15G] | 0.05 |
| GGCCGAGCUCUACACAGCGUGUCAAAGUGGCUGUGGCUAGAUCGCC [A4C A11U G22U C42U U43C] | 0 |
| GGCCGAGCUCCACACAGCGUGGCAAAGUGGCGGUGGCUAGUCUGCC [A4C A11C U32G A41U] | 0 |
| GGUAGAGCUCAACACAGCGUGGCAAAGAGGCUGUGGCUAGCCUGCC [C3U U28A A41C] | 0.07 |
| GGCCGAGCUCGACACAGCGUGGCAAAGUGGCUCUGGGUAUACUGCC [A4C A11G G33C C37G G40U] | 0 |
| GGCCGAGCUCAUCAAAGCGUGUCAAAGUGGCUGUGUCUAGAGUGCC [A4C A12U C15A G22U G36U C42G] | 0.1 |
| GGUAGAGCUCAACACAGCGUGGCAAAGUGGCUGUGGCCAGACUGAA [C3U U38C C45A C46A] | 0.1 |
